The record followed here is the GPR68 mutational scans of Howard et al. (2025).

Sequences and labels used below:
B1: GPR68, Q15743 (parent)
chain: MGNITADNSSMSCTIDHTIHQTLAPVVYVTVLVVGFPANCLSLYFGYLQIKARNELGVYLCNLTVADLFYICSLPFWLQYVLQHDNWSHGDLSCQVCGILLYENIYISVGFLCCISVDRYLAVAHPFRFHQFRTLKAAVGVSVVIWAKELLTSIYFLMHEEVIEDENQHRVCFEHYPIQAWQRAINYYRFLVGFLFPICLLLASYQGILRAVRRSHGTQKSRKDQIQRLVLSTVVIFLACFLPYHVLLLVRSVWEASCDFAKGVFNAYHFSLLLTSFNCVADPVLYCFVSETTHRDLARLRGACLAFLTCSRTGRAREAYPLGAPEASGKSGAQGEEPELLTKLHPAFQTPNSPGSGGFPTGRLA

In data set [1] the parent is B1. The experiment in a line: cAMP reporter score (Enrich2 score, wild type = 0); higher = more signal; HEK293T, FACS bins.
In data set [2] the parent is B1. Description: surface expression score (Enrich2 score, wild type = 0); higher = more signal; HEK293T, FACS bins.

Scores whose standard error is large were omitted. Two further conditions of the source, in which the scores hardly spread, are not listed. In variant names, del marks residues removed and ins residues inserted between the two positions. For part of these data: The concentration of ogerin is not given here.

Consider P283_V284insGSG, for which the cAMP reporter score is -1.61 in data set [1] (pH 5.5); -1.54 in data set [1] (pH 6); -1.37 in data set [1] (pH 6, modulator: ogerin); -1.62 in data set [1] (pH 6.5, modulator: ogerin). Also, the surface expression score in data set [2] was -2.24.
In the case of V284_L285insGSG, the cAMP reporter score in data set [1] (pH 5.5) was -0.565; in data set [1] (pH 6) it was -1.01; in data set [1] (pH 6, modulator: ogerin), -0.924; in data set [1] (pH 6.5, modulator: ogerin), -0.129. Besides, the surface expression score in data set [2] is -2.5.
Y286E: the cAMP reporter score in data set [1] (pH 5.5) was -1.19; in data set [1] (pH 6), 0.011; in data set [1] (pH 6, modulator: ogerin), -1.04; in data set [1] (pH 6.5, modulator: ogerin), -1.15. Besides, the surface expression score in data set [2] is -2.04.
Take Y286H: the cAMP reporter score in data set [1] (pH 5.5) is -1.01; in data set [1] (pH 6) it was -0.483; in data set [1] (pH 6, modulator: ogerin), -1.24; in data set [1] (pH 6.5, modulator: ogerin), -0.898. For the same variant, the surface expression score in data set [2] stood at 0.03.
As for Y286D, the cAMP reporter score in data set [1] (pH 5.5) is -1.39; in data set [1] (pH 6), -0.664; in data set [1] (pH 6, modulator: ogerin) it was -1.72; in data set [1] (pH 6.5, modulator: ogerin) it was -0.875. In addition, the surface expression score in data set [2] is -2.1.
Y286A: the cAMP reporter score is -1.35 in data set [1] (pH 5.5); -0.478 in data set [1] (pH 6); -1.43 in data set [1] (pH 6.5, modulator: ogerin). Besides, the surface expression score in data set [2] is -0.018.
Y286F: the cAMP reporter score in data set [1] (pH 5.5) was 0.462; in data set [1] (pH 6), -0.469; in data set [1] (pH 6, modulator: ogerin), 0.529; in data set [1] (pH 6.5, modulator: ogerin) it was -0.676. Also, in data set [2], the surface expression score was 0.507.
In the case of Y286G, the cAMP reporter score in data set [1] (pH 5.5) was -1.15; in data set [1] (pH 6), -0.619; in data set [1] (pH 6, modulator: ogerin) it was -1.34; in data set [1] (pH 6.5, modulator: ogerin), -1.38. For the same variant, in data set [2], the surface expression score is -1.03.
The corresponding values for Y286C are -1.36, -0.952, -1.66, -1.1 and 0.601.
For the variant D282_P283insGSG, the cAMP reporter score in data set [1] (pH 5.5) was -1.13; in data set [1] (pH 6) it was -0.785; in data set [1] (pH 6, modulator: ogerin), -1.21; in data set [1] (pH 6.5, modulator: ogerin), -1.39. For the same variant, in data set [2], the surface expression score is -1.68.
In the case of V280_A281insG, the cAMP reporter score was -1.46 in data set [1] (pH 5.5); -1.06 in data set [1] (pH 6); -1.64 in data set [1] (pH 6, modulator: ogerin); -1.8 in data set [1] (pH 6.5, modulator: ogerin). Also, in data set [2], the surface expression score is -3.46.
N278_V280del: the cAMP reporter score in data set [1] (pH 5.5) was -1.21; in data set [1] (pH 6, modulator: ogerin), -1.65; in data set [1] (pH 6.5, modulator: ogerin), -0.964. The surface expression score in data set [2] was -2.56.
As to C279_V280del, the cAMP reporter score was -1.45 in data set [1] (pH 5.5); -0.892 in data set [1] (pH 6); -1.59 in data set [1] (pH 6, modulator: ogerin); -1.68 in data set [1] (pH 6.5, modulator: ogerin). In data set [2], the surface expression score was -2.26.
In the case of A281_D282insGSG, the cAMP reporter score was -1.76 in data set [1] (pH 5.5); -1.57 in data set [1] (pH 6); -1.38 in data set [1] (pH 6, modulator: ogerin); -1.66 in data set [1] (pH 6.5, modulator: ogerin). The surface expression score in data set [2] is -1.4.
As to S276Y, the cAMP reporter score in data set [1] (pH 5.5) was -1.7; in data set [1] (pH 6), -0.684; in data set [1] (pH 6, modulator: ogerin), -1.62; in data set [1] (pH 6.5, modulator: ogerin), -0.848. Besides, the surface expression score in data set [2] is -1.51.
As to V280_A281insGSG, the cAMP reporter score in data set [1] (pH 5.5) is -1.06; in data set [1] (pH 6), -1.21; in data set [1] (pH 6, modulator: ogerin), -0.742; in data set [1] (pH 6.5, modulator: ogerin), -1.04. Also, the surface expression score in data set [2] was -2.18.
In the case of P283_V284insGS, the cAMP reporter score in data set [1] (pH 5.5) is -0.704; in data set [1] (pH 6), -1.1; in data set [1] (pH 6, modulator: ogerin), -1.98; in data set [1] (pH 6.5, modulator: ogerin), -0.993. The surface expression score in data set [2] was -2.21.
As for C279W, the cAMP reporter score was -1.51 in data set [1] (pH 5.5); -0.619 in data set [1] (pH 6, modulator: ogerin); -0.906 in data set [1] (pH 6.5, modulator: ogerin). Further, in data set [2], the surface expression score is -2.26.
Regarding C279S, the cAMP reporter score in data set [1] (pH 5.5) was 0.884; in data set [1] (pH 6) it was 0.729; in data set [1] (pH 6, modulator: ogerin), 0.356; in data set [1] (pH 6.5, modulator: ogerin), 0.429. Further, the surface expression score in data set [2] was -1.35.
Regarding C279E, the cAMP reporter score is -0.95 in data set [1] (pH 5.5); -0.706 in data set [1] (pH 6); -0.393 in data set [1] (pH 6, modulator: ogerin); -0.57 in data set [1] (pH 6.5, modulator: ogerin). Also, the surface expression score in data set [2] is -2.2.
The corresponding values for C279F are -1.47, -1.41, -1.76, -1.71 and -2.21.
In the same order, the values of C279M are -0.605, -1.14, -0.553, -0.758 and -1.89.
Regarding C279T, the cAMP reporter score in data set [1] (pH 5.5) was 0.664; in data set [1] (pH 6) it was 0.095; in data set [1] (pH 6, modulator: ogerin), -0.469; in data set [1] (pH 6.5, modulator: ogerin), -0.937. Moreover, in data set [2], the surface expression score is -0.112.
With C279P, the cAMP reporter score is 1.14 in data set [1] (pH 5.5); -1.01 in data set [1] (pH 6); 0.519 in data set [1] (pH 6, modulator: ogerin); -0.381 in data set [1] (pH 6.5, modulator: ogerin). Also, the surface expression score in data set [2] was 0.188.
The corresponding values for C279G are -1.02, -0.772, -1.9, -0.865 and -1.64.
On to C279H, for which the cAMP reporter score in data set [1] (pH 5.5) is 0.008; in data set [1] (pH 6, modulator: ogerin), -0.211; in data set [1] (pH 6.5, modulator: ogerin), 0.715.
C279A: the cAMP reporter score in data set [1] (pH 5.5) turned out to be 0.574; in data set [1] (pH 6), 3.18; in data set [1] (pH 6, modulator: ogerin), 0.744; in data set [1] (pH 6.5, modulator: ogerin) it was 2.28. The surface expression score in data set [2] worked out at 0.126.
The corresponding values for C279L are -0.403, -0.797, -1.79, -1.29 and -1.38.
As to C279V, the cAMP reporter score in data set [1] (pH 5.5) was 0.058; in data set [1] (pH 6) it was 0.533; in data set [1] (pH 6, modulator: ogerin), 0.381; in data set [1] (pH 6.5, modulator: ogerin) it was -0.262. Besides, the surface expression score in data set [2] was determined as 0.766.
As for C279Y, the cAMP reporter score in data set [1] (pH 5.5) was -1.27; in data set [1] (pH 6), -0.692; in data set [1] (pH 6, modulator: ogerin), -1.97; in data set [1] (pH 6.5, modulator: ogerin) it was -0.857. For the same variant, the surface expression score in data set [2] is -1.81.
Turning to C279R, the cAMP reporter score in data set [1] (pH 5.5) is -0.601; in data set [1] (pH 6) it was -0.174; in data set [1] (pH 6, modulator: ogerin), -0.79; in data set [1] (pH 6.5, modulator: ogerin), -0.608. The surface expression score in data set [2] was -0.683.
